Assay results as given in PubChem BioAssay AID504845 (National Center for Advancing Translational Sciences (NCATS), 2011).
Out of some 390,000 compounds screened, about 150 (0.038%) were called active. Inconclusive means that the source gave no clear call. Such entries were picked first, then a sample of the others. The call rests on the fitted dose curve; in most records, active means well fitted inhibition curve with a large enough effect; inconclusive means small, poorly fitted or top-dose-only effect; inactive means no such curve, though single readings can be large or run the other way. A potency beside an inconclusive call is a rough fit, not a confirmed value.

What follows are molecules tested against Regulator of G-protein signaling 4 (Homo sapiens) (UniProt P49798) (assay: Inhibitors of Regulator of G Protein Signaling (RGS) 4: qHTS). Conditions: Transcreener GDP fluorescence polarization, RGS4-accelerated GTP hydrolysis; series mostly up to 114 µM.
Procedure, shortened: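 MLSMR compounds (23 nl, pin-transferred) preincubated 10 min at room temperature with a 500nM (2x) first reagent, then RGS4 at 900nM (2x) plus Transcreener GDP mix added; fluorescence polarization (620/688 nm) read before and after 90 min at 30 °C.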
Further: nearly all actives have a fitted effect of over 75% in size.
Potency means the concentration at half of the fitted maximal effect; tags describe the fitted curve by direction and shape.

Sequence of UniProt P49798 (P49798 whole entry, looked up): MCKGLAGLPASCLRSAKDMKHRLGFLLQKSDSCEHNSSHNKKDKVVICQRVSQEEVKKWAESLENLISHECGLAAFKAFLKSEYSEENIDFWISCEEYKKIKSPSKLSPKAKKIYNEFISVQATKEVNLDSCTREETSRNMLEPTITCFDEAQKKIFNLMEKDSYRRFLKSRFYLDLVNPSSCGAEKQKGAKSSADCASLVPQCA

SMILES	Potency
Cc1nnc(N/N=C/c2ccc(O)c([N+](=O)[O-])c2)[nH]c1=O	inconclusive: 100 µM [inhibitor, single point]
Cc1ccc(C2CN(C)C3(C(=O)Nc4ccccc43)C23COc2ccccc2C3=O)cc1 (stereo not drawn)	inactive
O=c1cc(C(F)(F)F)[nH]c(=S)n1-c1ccccc1	inconclusive: 28.2 µM [inhibitor, full curve, poor fit]
COc1cc(C(=O)OCC(=O)Nc2c(C)n(C)n(-c3ccccc3)c2=O)c([N+](=O)[O-])cc1OC	inconclusive: 89.1 µM [inhibitor, single point]
Cc1ccc(F)c(C2=CC(=O)C[C@H](c3ccc(F)cc3)C2)c1	inactive
CCOc1ccc(N(CC(=O)NC2CCCCCC2)S(=O)(=O)c2ccccc2)cc1	inactive
CC(O)c1cccc(-c2ccc(CN3C[C@]4(CO)O[C@@H](CO)C[C@@H]4S3(=O)=O)cc2)c1 (stereo partly drawn)	inconclusive: 50.1 µM [inhibitor, partial curve, poor fit]
CCc1c(C)sc(NC(=O)C2CCCCC2C(=O)O)c1C(N)=O (stereo not drawn)	inconclusive: 39.8 µM [inhibitor, partial curve, poor fit]
O=C(Cc1cccs1)NNC(=S)NCc1ccc(Cl)cc1	inconclusive: 79.4 µM [inhibitor, partial curve, poor fit]
O=C(C1CCCCC1)N1CCCn2c1nc1ccccc12	inactive
CCOC(=O)c1c(C2COc3ccccc3O2)csc1NC(=O)c1ccco1 (stereo not drawn)	inconclusive: 79.4 µM [inhibitor, partial curve, poor fit]
Cc1cc(C)c(C#N)c(=N)o1	inconclusive: 79.4 µM [inhibitor, partial curve, poor fit]
Cc1ccc(C)c(N2CCN(C(=S)Nc3ccc4nc(N5CCOCC5)cc(C)c4c3)CC2)c1	inconclusive: 89.1 µM [inhibitor, partial curve, poor fit]
COc1ccc(C(NC(=O)/C=C/c2ccco2)c2ccc(OC)c(OC)c2)cc1OC	inconclusive: 79.4 µM [inhibitor, partial curve, poor fit]
COc1cccc(OCCCCSc2ncccn2)c1	inconclusive: 89.1 µM [inhibitor, partial curve, poor fit]
CC(C)n1cc(CN2CCC(n3nccc3NC(=O)CCCc3ccccc3)CC2)cn1	inactive
O=c1[nH]c(=O)c2[nH]c(=S)[nH]c2[nH]1	inconclusive: 10 µM [inhibitor, full curve, poor fit]
Cc1cc(C)c2c(N)c(C(=O)Nc3nccs3)sc2n1	inconclusive: 89.1 µM [inhibitor, single point]
